From the supplement of paper PMC3334620 come the findings set out here.

In all, about 33,000 sequences were measured (“E-score (-0.5 to 0.5)”: median about -0.036, highest 2% from about 0.37 on). The list shows a part of the results.

This assay deals with T1, Yer064c (UniProt P40041).
T1 sequence: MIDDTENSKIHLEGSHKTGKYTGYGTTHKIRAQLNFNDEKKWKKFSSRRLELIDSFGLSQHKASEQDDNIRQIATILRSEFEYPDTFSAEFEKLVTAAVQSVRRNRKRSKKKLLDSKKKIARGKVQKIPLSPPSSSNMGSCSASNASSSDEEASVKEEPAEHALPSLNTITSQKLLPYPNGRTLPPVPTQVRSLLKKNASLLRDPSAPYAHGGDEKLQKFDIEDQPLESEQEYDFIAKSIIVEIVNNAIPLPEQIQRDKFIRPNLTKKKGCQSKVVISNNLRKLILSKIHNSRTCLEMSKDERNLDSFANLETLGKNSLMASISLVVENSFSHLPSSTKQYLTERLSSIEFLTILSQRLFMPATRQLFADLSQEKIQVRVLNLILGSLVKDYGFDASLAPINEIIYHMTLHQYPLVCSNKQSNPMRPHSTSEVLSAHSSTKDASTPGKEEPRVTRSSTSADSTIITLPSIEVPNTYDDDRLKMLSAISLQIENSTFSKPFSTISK
In words: PBM E-score (8-mer binding enrichment) (E-score (-0.5 to 0.5)); higher = stronger / more preferred TF binding; most listed sequences are background and not binding sites. The conditions noted are these: protein concentration: 200 nM; construct: GST-full length. Summed up:
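Universal all-10-mer Agilent arrays, fresh or stripped once, were converted to double-stranded form by primer extension. GST-tagged yeast transcription factors from PURExpress in vitro transcription/translation, full-length or DNA-binding domain only, were applied at about 100-200 nM and detected with fluorescent anti-GST. After masliner normalisation, the Universal PBM Analysis Suite scored each ungapped eight-base word together with its reverse complement by E-score.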
CGGGCCAA: the “PBM E-score” value is -0.273. As to CACTAAGA, the “PBM E-score” value came to 0.119. The value for TCAGACGA was 0.121.

For AGCTGATA, the “PBM E-score” value was -0.149. The value for AAAAAGAC was 0.0429; that for AAGAGGAC was -0.0869; that for CACATCAC was -0.106. For CTAAGTAC, the “PBM E-score” value turned out to be 0.118.

On to AAGAGCGG, for which the “PBM E-score” value was -0.214. Turning to AGAGCAAT, the “PBM E-score” value is -0.141. For the sequence TCACCCGA, the “PBM E-score” value is 0.224. For CACCTTTC, the “PBM E-score” value is -0.216. With ATATTTAA, the “PBM E-score” value was determined as 0.183. Regarding GACATTGC, the “PBM E-score” value was -0.103. As to CGGTACTC, the “PBM E-score” value worked out at 0.151. Take ATGGTCCC: the “PBM E-score” value was -0.116. The value for TACCATCA was -0.102; that for ATAATAAA was 0.137. Turning to AGGGGACC, the “PBM E-score” value is -0.131. The value for CGCTTTGA was -0.117; that for ACTAGTCC was 0.164. With CTAATACC, the “PBM E-score” value is -0.118. With ATTAGTTG, the “PBM E-score” value is 0.118.

For GCCTACTA, the “PBM E-score” value amounted to 0.0543. On to AACTCGCG, for which the “PBM E-score” value worked out at 0.0438.

GGGTAAGA: the “PBM E-score” value was found to be 0.172. Consider GCGCAAGC, for which the “PBM E-score” value is -0.136. Turning to ACACCAGC, the “PBM E-score” value is -0.359.

With ACGCTTAA, the “PBM E-score” value is 0.0429. TAGACTCA: the “PBM E-score” value was determined as 0.413. Consider ACTCGGTC, for which the “PBM E-score” value came to 0.025. On to CACAGCAA, for which the “PBM E-score” value is -0.00016. The same measure for ACTGCTAT: -0.0888; for GTCCCCGA: -0.0658; for CGACTCAA: 0.474. On to CGACGTAA, for which the “PBM E-score” value amounted to 0.133. For the sequence ACCGGTAT, the “PBM E-score” value is -0.251. Take AAGGTGGA: the “PBM E-score” value is -0.112.

In the case of AATGGCGC, the “PBM E-score” value was -0.349.

For CGGTAAAC, the “PBM E-score” value was -0.072. With CGATTACA, the “PBM E-score” value worked out at 0.101. For the sequence ATGCCAAA, the “PBM E-score” value is -0.129. As for ATCCTGAA, the “PBM E-score” value was found to be 0.0956. The value for AGACATCG was 0.157; that for CCGATGGA was -0.18. As to GAAGACAC, the “PBM E-score” value is -0.023.

Consider CGTTTAAA, for which the “PBM E-score” value is -0.0591. As to AATGCACG, the “PBM E-score” value was -0.0518. The value for CAGTTTAC was -0.0498; that for AGTTTAGC was -0.129. The value for GACCTCGC was -0.121; that for ATAACCAA was 0.0499.

For the sequence CAAAATCC, the “PBM E-score” value was determined as 0.087. Regarding AAGTCACG, the “PBM E-score” value turned out to be 0.433. In the case of ATAATCCC, the “PBM E-score” value is -0.227. As for AGCCACAA, the “PBM E-score” value was determined as 0.0122. On to GGATGTGA, for which the “PBM E-score” value was 0.0342.

As to GCAACCGA, the “PBM E-score” value was -0.0636. Consider AAAAATCT, for which the “PBM E-score” value is 0.0566. As to TCTAAGCA, the “PBM E-score” value was determined as 0.151.

For the sequence AATAGTGG, the “PBM E-score” value was -0.102.

For GGAATTCC, the “PBM E-score” value is -0.395. Consider CGGTCGGC, for which the “PBM E-score” value was determined as 0.0072. With AGAGTTAA, the “PBM E-score” value came to 0.036. For GAACCCGC, the “PBM E-score” value was -0.264. Take AACGAGGA: the “PBM E-score” value is -0.0859. The value for CGAAGTTC was -0.126. With AACTTGCC, the “PBM E-score” value was -0.221. Regarding AACCCGTG, the “PBM E-score” value was -0.193. With GAACTCGA, the “PBM E-score” value is -0.0489. CACCAATG: the “PBM E-score” value was -0.0793. The same measure for AGAAAAGA: 0.101; for AGAGTCGG: 0.326; for TCTACGCA: -0.00215. As to GGTCTTTA, the “PBM E-score” value was 0.0323. The value for ATGCGAAC was -0.0799; that for ATCGTTAG was 0.0777; that for AATCGAGA was 0.0741. On to CATTTACG, for which the “PBM E-score” value was -0.047. Turning to AACCTGCT, the “PBM E-score” value is -0.17. As for CCGCGCTC, the “PBM E-score” value was -0.147. Turning to AGAATTAG, the “PBM E-score” value was 0.00063.

With ATGCCTAC, the “PBM E-score” value was -0.322. The same measure for GTTTGTCA: -0.0655; for CCTGACTA: 0.461; for TGAAGCAA: -0.0849. The same measure for ATAATCTC: 0.137; for ATCCCGAC: -0.0953. The value for ATTGGTAG was 0.111; that for AAAAGCAA was 0.0447.

Take GCCGTAGA: the “PBM E-score” value was -0.00155. Consider GGTAAGTA, for which the “PBM E-score” value is -0.105. As to ACAAGACA, the “PBM E-score” value is -0.114. The value for ACCGATAC was -0.139.

As to AGGGGCAG, the “PBM E-score” value was -0.383.

Regarding AATAGCAA, the “PBM E-score” value was 0.19.

In the case of ATACGGAG, the “PBM E-score” value was determined as 0.043. ATTTCGAG: the “PBM E-score” value came to 0.104.

With CGTAGTAG, the “PBM E-score” value was found to be 0.00309.

Turning to GCTTCTTA, the “PBM E-score” value is -0.122.

Regarding CGTAGCGC, the “PBM E-score” value is -0.176. The same measure for GAATCGCA: 0.181; for ATGCGTTA: -0.0969.

For CTAGTTCC, the “PBM E-score” value was -0.0858. For the sequence CTCCAAAC, the “PBM E-score” value is -0.0514.

Take CTCACCTA: the “PBM E-score” value stood at 0.177. CACGTTTA: the “PBM E-score” value was found to be 0.205. Turning to TACTCCTA, the “PBM E-score” value was determined as 0.196.

GTGAACCA: the “PBM E-score” value was found to be 0.284. GGTGTGCA: the “PBM E-score” value was -0.109.
